The values that follow come from the supplement of paper PMC11876631.

The target of the data set is Escherichia coli (laboratory strain). Nature of the data set: barcode share on antibiotic plates over drug-free plates; higher = less susceptible. Here is the method: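 A pool of E. coli strains, each edited to carry one amino-acid change in an essential protein, was grown for 48 h on minimal glucose agar with or without antibiotic; strain barcodes were sequenced; mean of two replicates.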

Where [1] appears, read: antibiotic: carbenicillin, 2× MIC (3.1 µg/mL).
Setting [2] is: antibiotic: gentamicin, 2× MIC (MIC 0.45 µg/mL).

Residue numbers refer to the chain shown, from its start. In names and notes the source's numbering stands. ± gives the standard deviation of the averaged measurements. Laboratory Escherichia coli strains with one amino-acid change in an essential protein, pooled on minimal glucose agar with carbenicillin or gentamicin at twice the control MIC (plus kanamycin and chloramphenicol for the plasmids), 48 h. Fold change of barcode share against drug-free plates; higher = less susceptible. Active = above 20 in both replicates (the paper's putatively resistant). '<' = one read or none on drug, '>' = one read or none on a drug-free plate. Shares are relative, so most strains fall below 1 when a few take over. Listed are strains with at least 15 reads on both drug-free plates, and hits; most hits rest on fewer reference reads. Replicate rank correlation about 0.5. Edits are read from barcodes. Bounds are passed on as bounds.

B1: aspS F393Q (protein)
chain: MRTEYCGQLRLSHVGQQVTLCGWVNRRRDLGSLIFIDMRDREGIVQVFFDPDRADALKLASELRNEFCIQVTGTVRARDEKNINRDMATGEIEVLASSLTIINRADVLPLDSNHVNTEEARLKYRYLDLRRPEMAQRLKTRAKITSLVRRFMDDHGFLDIETPMLTKATPEGARDYLVPSRVHKGKFYALPQSPQLFKQLLMMSGFDRYYQIVKCFRDEDLRADRQPEFTQIDVETSFMTAPQVREVMEALVRHLWLEVKGVDLGDFPVMTFAEAERRYGSDKPDLRNPMELTDVADLLKSVEFAVFAGPANDPKGRVAALRVPGGASLTRKQIDEYGNFVKIYGAKGLAYIKVNERAKGLEGINSPVAKFLNAEIIEDILDRTAAQDGDMIQFGADNKKIVADAMGALRLKVGKDLGLTDESKWAPLWVIDFPMFEDDGEGGLTAMHHPFTSPKDMTAAELKAAPENAVANAYDMVINGYEVGGGSVRIHNGDMQQTVFGILGINEEEQREKFGFLLDALKYGTPPHAGLAFGLDRLTMLLTGTDNIRDVIAFPKTTAAACLMTEAPSFANPTALAELSIQVVKKAENN
As to B1, the “fold change of barcode share” value under setting [1] turned out to be 0.237 ± 0.093.

B2: orn L93A (protein)
chain: MSANENNLIWIDLEMTGLDPERDRIIEIATLVTDANLNILAEGPTIAVHQSDEQLALMDDWNVRTHTASGLVERVKASTMGDREAELATLEFAKQWVPAGKSPICGNSIGQDRRFLFKYMPELEAYFHYRYLDVSTLKELARRWKPEILDGFTKQGTHQAMDDIRESVAELAYYREHFIKL
Consider B2, for which the “fold change of barcode share” value reads like this: under setting [1], 0.211 ± 0.069; under setting [2], 0.0115 ± 0.0063.

B3: orn I164A (protein)
chain: B2 chain with A93L, I164A
In the case of B3, the “fold change of barcode share” value by setting is: under setting [1], 0.375 ± 0.033; under setting [2], 0.0151 ± 0.0052.

B4: orn L171Q (protein)
chain: B2 chain with A93L, L171Q
As to B4, the “fold change of barcode share” value reads like this: under setting [1], 0.36 ± 0.032; under setting [2], 0.00619 ± 0.0045.

B5: orn L93W (protein)
chain: B2 chain with A93W
Regarding B5, the “fold change of barcode share” value is, setting by setting: under setting [1], 0.256 ± 0.052; under setting [2], under 0.00519.

B6: orn L171W (protein)
chain: B2 chain with A93L, L171W
Regarding B6, the “fold change of barcode share” value reads like this: under setting [1], 0.433 ± 0.14; under setting [2], under 0.0138.

B7: orn L171P (protein)
chain: B2 chain with A93L, L171P
On to B7, for which the “fold change of barcode share” value runs as follows: under setting [1], 0.339 ± 0.19; under setting [2], under 0.00457.

B8: orn F115W (protein)
chain: B2 chain with A93L, F115W
Turning to B8, the “fold change of barcode share” value was 0.322 ± 0.093 under setting [1] and under 0.00276 under setting [2].

B9: orn L93D (protein)
chain: B2 chain with A93D
Take B9: the “fold change of barcode share” value under setting [1] is 0.214 ± 0.036.

B10: orn L171A (protein)
chain: B2 chain with A93L, L171A
In the case of B10, the “fold change of barcode share” value runs as follows: under setting [1], 0.45 ± 0.3; under setting [2], 0.00462 ± 0.0012.

B11: obgE L154A (protein)
chain: MKFVDEASILVVAGDGGNGCVSFRREKYIPKGGPDGGDGGDGGDVWMEADENLNTLIDYRFEKSFRAERGQNGASRDCTGKRGKDVTIKVPVGTRVIDQGTGETMGDMTKHGQRLLVAKGGWHGLGNTRFKSSVNRTPRQKTNGTPGDKRELLAELMLLADVGMLGMPNAGKSTFIRAVSAAKPKVADYPFTTLVPSLGVVRMDNEKSFVVADIPGLIEGAAEGAGLGIRFLKHLERCRVLLHLIDIDPIDGTDPVENARIIISELEKYSQDLATKPRWLVFNKIDLLDKVEAEEKAKAIAEALGWEDKYYLISAASGLGVKDLCWDVMTFIIENPVVQAEEAKQPEKVEFMWDDYHRQQLEEIAEEDDEDWDDDWDEDDEEGVEFIYKR
In the case of B11, the “fold change of barcode share” value reads like this: under setting [1], 0.303 ± 0.047; under setting [2], 0.035 ± 0.048.

B12: pabB L57A (protein)
chain: MKTLSPAVITLLWRQDAAEFYFSRLSHLPWAMLLHSGYADHPYSRFDIVVAEPICTATTFGKETVVSESEKRTTTTDDPLQVLQQVLDRADIRPTHNEDLPFQGGALGLFGYDLGRRFESLPEIAEQDIVLPDMAVGIYDWALIVDHQRHTVSLLSHNDVNARRAWLESQQFSPQEDFTLTSDWQSNMTREQYGEKFRQVQEYLHSGDCYQVNLAQRFHATYSGDEWQAFLQLNQANRAPFSAFLRLEQGAILSLSPERFILCDNSEIQTRPIKGTLPRLPDPQEDSKQAVKLANSAKDRAENLMIVDLMRNDIGRVAVAGSVKVPELFVVEPFPAVHHLVSTITAQLPEQLHASDLLRAAFPGGSITGAPKVRAMEIIDELEPQRRNAWCGSIGYLSFCGNMDTSITIRTLTAINGQIFCSAGGGIVADSQEEAEYQETFDKVNRILKQLEK
As for B12, the “fold change of barcode share” value is, setting by setting: under setting [1], 0.845 ± 0.39; under setting [2], 0.0278 ± 0.029.

B13: pabB L57Q (protein)
chain: B12 chain with A57Q
Consider B13, for which the “fold change of barcode share” value reads like this: under setting [1], 1.04 ± 0.6; under setting [2], under 0.0208.

B14: pabB V341A (protein)
chain: B12 chain with A57L, V341A
Turning to B14, the “fold change of barcode share” value is, setting by setting: under setting [1], 0.619 ± 0.32; under setting [2], 0.0101 ± 0.00035.

B15: pabB L57W (protein)
chain: B12 chain with A57W
Turning to B15, the “fold change of barcode share” value reads like this: under setting [1], 0.89 ± 0.12; under setting [2], under 0.019.
